Each structure is given as a SMILES string. In all, about 39,000 compounds went through this assay and about 220 (0.56%) showed activity. Some of the results follow.
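Also: static incubation at 37 °C against the wild-type strain, values averaged over two biological replicates.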

The assay deals with Escherichia coli K-12 BW25113. Kind of assay: relative growth (OD600 normalised to plate interquartile mean) (fraction); higher = less growth inhibition, active = 0.2 or less. As to conditions: 50 µM; LB; incubation time: overnight (16-24 h).
For the compound `C[C@@H]1CN([C@H](C)CO)C(=O)CCCn2cc(nn2)CO[C@H]1CN(C)C(=O)Nc1ccc2c(c1)OCO2`, the relative growth is inactive: 0.97.
To `C[C@@H]1CCCCO[C@@H](CN(C)C(=O)Nc2ccccc2)[C@@H](C)CN([C@@H](C)CO)C(=O)c2cc(NC(=O)Cc3ccccc3)ccc2O1` belongs inactive: 0.991; to `O=C(C[C@@H]1CC[C@H]2[C@@H](COC[C@@H](O)CN2S(=O)(=O)c2ccc(Cl)cc2)O1)NCCN1CCCCC1`, inactive: 1.03; to `COc1ccc2c3c([nH]c2c1)[C@H](CO)N(C[C@]13CCN(CC1)C(=O)Nc1c(noc1C)C)C(=O)Nc1ccc(cc1)F`, inactive: 0.993.
As for `CC(C)CC#Cc1ccc2c(c1)O[C@H](CN(C)C(=O)Cc1ccncc1)[C@H](C)CN([C@@H](C)CO)S2(=O)=O`, the relative growth was inactive: 1.02.
To `CC(C)(C)c1cccc(N)c1` belongs inactive: 1.01; to `CCCN(C)C[C@@H]1Oc2cc(C#Cc3ccccc3OC)ccc2S(=O)(=O)N([C@H](C)CO)C[C@@H]1C`, inactive: 0.999.
On to `C[C@@H]1CN([C@@H](C)CO)C(=O)CCCn2nncc2CO[C@H]1CN(C)S(=O)(=O)c1ccc2ccccc2c1`, for which the relative growth was inactive: 1.03.
Consider `C[C@H]1CN([C@@H](C)CO)C(=O)Cc2cc(N(C)C)ccc2O[C@@H]1CN(C)C(=O)Nc1ccc2c(c1)OCO2`, for which the relative growth is inactive: 1.
To `COc1ccc(S(=O)(=O)N(C)C[C@@H]2Oc3ccc(NS(=O)(=O)c4cccs4)cc3CC(=O)N([C@H](C)CO)C[C@H]2C)cc1` belongs inactive: 1; to `C[C@@H]1CN([C@@H](C)CO)C(=O)c2cc(NS(C)(=O)=O)ccc2O[C@H]1CN(C)C(=O)Nc1ccccc1`, inactive: 0.97; to `N[C@@H](CSCc1cccc(Br)c1)C(=O)O`, inactive: 1.02.
Take `C[C@H]1CN([C@@H](C)CO)C(=O)c2cccc(NC(=O)Nc3ccccc3)c2O[C@H]1CN(C)Cc1ccc(-c2ccccc2)cc1`: the relative growth was inactive: 1.01.
In the case of `COc1ccc(NC(=O)Nc2ccc3c(c2)C(=O)N([C@@H](C)CO)C[C@@H](C)[C@@H](CN(C)C(=O)NC(C)C)OCCCC[C@H](C)O3)cc1` it was inactive: 0.994; in that of `COc1ccc(CN(C)C[C@H]2Oc3ccc(NC(=O)Cn4cnnn4)cc3C(=O)N([C@H](C)CO)C[C@@H]2C)cc1`, inactive: 0.899.
With `C[C@@H]1CCCCO[C@@H](CN(C)C(=O)CCCN(C)C)[C@@H](C)CN([C@H](C)CO)C(=O)c2cc(NC(=O)Nc3cccc4ccccc34)ccc2O1`, the relative growth was inactive: 1.01.
In the case of `C[C@@H]1CCCCO[C@@H](CN(C)C(=O)c2ccncc2)[C@H](C)CN([C@@H](C)CO)C(=O)c2cc(NS(=O)(=O)c3ccc(Cl)cc3)ccc2O1` it was inactive: 1.
As for `COc1ccc(NC(=O)N(C)C[C@H]2OCCCC[C@@H](C)Oc3ccc(NC(=O)Nc4ccccc4)cc3C(=O)N([C@@H](C)CO)C[C@H]2C)cc1`, the relative growth was inactive: 1.04.
In the case of `C[C@@H]1CN([C@H](C)CO)C(=O)c2cccc(NS(=O)(=O)c3ccccc3)c2O[C@@H]1CN(C)Cc1ccncc1` it was inactive: 1.01; in that of `C[C@@H]1CN([C@H](C)CO)C(=O)c2cc(NC(=O)CCC(F)(F)F)ccc2O[C@@H](C)CCCCO[C@H]1CN(C)Cc1ccccc1`, inactive: 1.01.
Consider `C[C@H](CO)N1C[C@H](C)[C@@H](CN(C)S(=O)(=O)c2ccc(F)cc2)Oc2ncc(C#CC3(O)CCCC3)cc2C1=O`, for which the relative growth was inactive: 0.999.
In the case of `C[C@@H]1CN([C@@H](C)CO)C(=O)c2cccc(NS(=O)(=O)c3ccccc3)c2O[C@H]1CN(C)S(=O)(=O)c1ccc(F)cc1` it was inactive: 0.99; in that of `C[C@@H]1CN([C@@H](C)CO)C(=O)Cc2cc(NS(=O)(=O)c3ccc(F)cc3)ccc2O[C@H]1CN(C)S(=O)(=O)c1ccccc1`, inactive: 1.01.
For `COc1ccc(S(=O)(=O)Nc2ccc3c(c2)C(=O)N([C@H](C)CO)C[C@H](C)[C@H](CN(C)Cc2ccc(Oc4ccccc4)cc2)O3)cc1`, the relative growth was inactive: 0.994.
To `CO[C@@H]1CN(C)C(=O)c2cc(NS(C)(=O)=O)ccc2OC[C@H](C)N(S(C)(=O)=O)C[C@@H]1C` belongs inactive: 0.999; to `O=C(C[C@@H]1C[C@H]2c3cc(NC(=O)c4ccc5c(c4)OCO5)ccc3O[C@H]2[C@@H](CO)O1)NCCN1CCCCC1`, inactive: 0.994.
As to `COCC(=O)N(C)C[C@H]1Oc2cc(C#C[C@H](C)O)ccc2S(=O)(=O)N([C@H](C)CO)C[C@H]1C`, the relative growth is inactive: 0.977.
In the case of `COc1ccc(S(=O)(=O)Nc2ccc3c(c2)CC(=O)N([C@H](C)CO)C[C@@H](C)[C@H](CN(C)Cc2ccc(C(=O)O)cc2)O3)cc1` it was inactive: 0.984; in that of `C[C@@H]1CN([C@H](C)CO)C(=O)Cc2cc(NC(=O)Nc3ccc(F)cc3)ccc2O[C@@H]1CN(C)Cc1ccc(C(=O)Nc2ccccc2N)cc1`, inactive: 0.95.
To `COc1ccc(S(=O)(=O)N(C)C[C@H]2Oc3ccc(NC(=O)Nc4cccc5ccccc45)cc3C(=O)N([C@@H](C)CO)C[C@H]2C)cc1` belongs inactive: 1.05.
To `C[C@H](CO)N1C[C@H](C)[C@H](CN(C)C(=O)Nc2ccc(F)cc2)Oc2ccc(NC(=O)Cn3cnnn3)cc2C1=O` belongs inactive: 1; to `C[n+]1ccn(C[C@@]2(C)[C@H](C(=O)O)N3C(=O)C[C@H]3S2(=O)=O)n1`, inactive: 0.98; to `C[C@@H]1CCCCO[C@H](CN(C)C(=O)Nc2cccc3ccccc23)[C@H](C)CN([C@H](C)CO)C(=O)c2cc(NS(=O)(=O)c3ccccc3)ccc2O1`, inactive: 1.
For the compound `O=C(O)[C@@H]1CC(=O)N(C2CCCC2)C1`, the relative growth is inactive: 0.982.
On to `Cc1ccc(C(=O)N2CCC(n3cc(C(C)(C)N)nn3)CC2)c(C)c1`, for which the relative growth is inactive: 1.02.
To `COc1ccc(CNC(=O)C[C@H]2C[C@@H]3c4cc(NC(=O)NC5CCCC5)ccc4O[C@@H]3[C@@H](CO)O2)cc1` belongs inactive: 0.973.
To `C[C@@H]1CN([C@@H](C)CO)C(=O)c2cccc(NC(=O)c3nc4ccccc4s3)c2O[C@H]1CN(C)Cc1ccc(C(=O)Nc2ccccc2N)cc1` belongs inactive: 1.03.
Take `COc1ccc(S(=O)(=O)N(C)C[C@@H]2OCCCC[C@@H](C)Oc3ccc(NC(=O)Nc4ccc(F)cc4)cc3C(=O)N([C@@H](C)CO)C[C@@H]2C)cc1`: the relative growth was inactive: 1.04.
In the case of `CCCNC(=O)N1C[C@@H](O)COC[C@@H]2O[C@@H](CC(=O)NCCCN3CCOCC3)CC[C@H]21` it was inactive: 1.01; in that of `C[C@@H]1CCCCO[C@@H](CN(C)Cc2ccc3c(c2)OCO3)[C@H](C)CN([C@H](C)CO)C(=O)c2cc(NS(=O)(=O)c3ccccc3)ccc2O1`, inactive: 1.05; in that of `C/N=C(\NC)NCCC[C@H](N)C(=O)O`, inactive: 0.837.
To `CN(C)Cc1nc(=O)c2ccccc2[nH]1` belongs inactive: 1.05; to `OCCn1cncn1`, inactive: 0.995; to `C[C@@H]1CN([C@H](C)CO)C(=O)c2cc(NC(=O)NC3CCCCC3)ccc2O[C@@H](C)CCCCO[C@H]1CN(C)Cc1ccncc1`, inactive: 1.02.
In the case of `COc1cccc(CNC(=O)c2cc3c(c(-c4cccc(-c5ccc(C#N)cc5)c4)n2)[C@H](CCO)N([S@@](=O)C(C)(C)C)C3)c1` it was inactive: 1.06.
In the case of `C[C@H]1CN([C@@H](C)CO)C(=O)Cc2cc(NC(=O)CCCCCC(=O)Nc3ccccc3N)ccc2O[C@@H]1CN(C)Cc1ccc(C(F)(F)F)cc1`, the relative growth was inactive: 0.989.
To `C[C@@H]1CN([C@H](C)CO)C(=O)c2cccc(NS(=O)(=O)c3ccccc3)c2O[C@H]1CN(C)S(=O)(=O)c1ccccc1` belongs inactive: 1.01; to `Cc1noc(C)c1NC(=O)N(C)C[C@@H]1OCCCC[C@H](C)Oc2ccc(NS(=O)(=O)c3ccccc3)cc2C(=O)N([C@H](C)CO)C[C@@H]1C`, inactive: 1.02; to `COc1ccc(S(=O)(=O)Nc2ccc3c(c2)C(=O)N([C@@H](C)CO)C[C@H](C)[C@@H](CN(C)C(=O)Nc2ccccc2)OCCCC[C@H](C)O3)cc1`, inactive: 0.982.
Turning to `CCCCCCCCCCCCCCCC(=O)OC[C@H](NC(=O)C(Cl)Cl)[C@H](O)c1ccc([N+](=O)[O-])cc1`, the relative growth is inactive: 0.604.
Take `Cc1noc(C)c1NC(=O)Nc1ccc2c(c1)C(=O)N([C@H](C)CO)C[C@H](C)[C@H](CN(C)S(=O)(=O)c1cccs1)OCCCC[C@@H](C)O2`: the relative growth is inactive: 1.
To `C[C@@H]1CN([C@@H](C)CO)C(=O)c2cc(NS(=O)(=O)c3cccs3)ccc2O[C@@H](C)CCCCO[C@@H]1CN(C)C(=O)Nc1ccc(C(F)(F)F)cc1` belongs inactive: 1.01; to `O=C(Nc1ccccc1)Nc1ccc(Nc2ccccc2)cc1`, inactive: 1.03; to `CC(=O)c1c(O)c(C)c(O)c2c1OC1=CC(=O)C(C(C)=O)C(=O)C12C` (stereo not given), inactive: 1.1.
In the case of `COc1ccc(S(=O)(=O)N(C)C[C@@H]2Oc3ccc(NC(=O)C4CC4)cc3C(=O)N([C@H](C)CO)C[C@H]2C)cc1` it was inactive: 0.993; in that of `CC(C)NC(=O)N(C)C[C@H]1Oc2c(NS(=O)(=O)c3cccs3)cccc2C(=O)N([C@H](C)CO)C[C@@H]1C`, inactive: 0.96.
To `Cc1noc(C)c1NC(=O)Nc1cccc2c1O[C@@H](CN(C)C(=O)Nc1cccc3ccccc13)[C@H](C)CN([C@@H](C)CO)C2=O` belongs inactive: 0.988; to `CS(=O)(=O)N1CCC2(CC1)CN(CCn1cccn1)C(=O)CO2`, inactive: 0.992.
Consider `Cc1ccc(S(=O)(=O)Nc2ccc3c(c2)C(=O)N([C@H](C)CO)C[C@@H](C)[C@H](CN(C)Cc2ccc(-c4ccccc4)cc2)O3)cc1`, for which the relative growth is inactive: 1.01.
To `C[C@@H]1CCCCO[C@@H](CN(C)Cc2ccncc2)[C@@H](C)CN([C@H](C)CO)C(=O)c2cc(NS(C)(=O)=O)ccc2O1` belongs inactive: 1.03.
